Measurements published in PubChem BioAssay AID686978 (National Center for Advancing Translational Sciences (NCATS), 2013).
Where “and” joins values, the source holds several entries; their conditions need not be identical. Equal values may be shown once. About 64,000 (15%) of roughly 420,000 compounds were called active. The inconclusive results got no clear call from the source; some entries with a clear call stand among them for comparison. Calls follow the shape of the dose curve; as a rule, active = well fitted inhibition curve with a large enough effect; inconclusive = small, poorly fitted or top-dose-only effect; inactive = flat fitted curve, though single readings scatter. Where the call is inconclusive, the potency comes from a doubtful curve fit.

Test: qHTS for Inhibitors of human tyrosyl-DNA phosphodiesterase 1 (TDP1): qHTS in cells in absence of CPT; also: nearly all actives have a fitted effect of over 55% in size
Details: DT40 Tdp1-/- hTDP1 cells, no CPT, ATP luminescence, 48 h; activity change, negative = growth inhibition: at 46.2 µM (top of the series)
Method in brief: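 A cellular qHTS used chicken DT40 cells lacking endogenous Tdp1 but carrying stably transfected human TDP1. Compounds were applied without camptothecin, and cell growth kinetics were judged by ATP-dependent luminescence after ≥48 hr.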
% is scaled to controls: 0 for no effect and ±100 for the full control effect; potency is read from the fitted curve at half-maximal effect; tags tell the direction and shape of the fitted curve.

Row | SMILES | Potency | activity change, negative = growth inhibition
1 | O=C(Nc1ccc(F)cc1)C1CCN(S(=O)(=O)c2cccs2)CC1 | inconclusive: 16.4 µM [inhibitor, partial curve, poor fit] | 
2 | Nc1c(Cl)cc(-c2csc(N3CCCC3c3nc4cc(Cl)c(Cl)cc4n3CCOCCO)n2)cc1Cl (stereo not drawn) |  | inactive: -7.82%
3 | Brc1ccc(-c2c(-c3ccsc3)sc3ccccc23)cn1 | inconclusive: 18.4 µM [inhibitor, partial curve] | 
4 | Cc1ccc(-c2nc3ccccc3o2)cc1NC(=S)NC(=O)c1cccs1 | inconclusive: 29.1 µM [inhibitor, single point] | 
5 | N#CC1=C2SCN(C3CCCCC3)CN2C(=O)CC1c1ccc(Br)cc1 (stereo not drawn) | inconclusive: 20.6 µM [inhibitor, single point] | 
6 | O=C(Oc1cccc(NC(=O)c2cccs2)c1)c1cccc(S(=O)(=O)N2CCCC2)c1 |  | inconclusive: -32.9% [inhibitor]
7 | COc1ccc(-n2nc3cc(C)c(N)c(Br)c3n2)cc1 | inconclusive: 16.4 µM [inhibitor, single point] | 
8 | CCOc1cc(C#N)c(NC(=O)c2ccc(OC)c(S(=O)(=O)N3CCN(c4ccccc4)CC3)c2)cc1OCC | inconclusive: 2.06 µM [inhibitor, full curve] | 
9 | Cc1ccc(C)n1-c1sc2c(c1C(=O)O)CCCC2 | inconclusive: 29.1 µM [inhibitor, single point] | 
10 | N#Cc1nc(N)nc(N(c2ccccc2)c2ccccc2)n1 | inconclusive: 35.5 µM [inhibitor, single point] and inconclusive: 29.1 µM [inhibitor, single point] | 
11 | O=C(NC1CCCCC1)C(c1ccccc1)N(Cc1ccc2c(c1)OCO2)C(=O)c1cnsn1 (stereo not drawn) | inconclusive: 23.1 µM [inhibitor, single point] | 
12 | CC[C@]12c3[nH]c4cc(CCC(=O)N(C)C)ccc4c3CCN1C(=O)[C@@H](CC(=O)NCC13CC4CC(CC(C4)C1)C3)C[C@@H]2C(=O)N1CCN(C(=O)C2CC2)CC1 | inconclusive: 20.6 µM [inhibitor, single point] | 
13 | COc1cc2nc(N3CCCC(O)C3)c(CNCc3ccccc3F)cc2c(OC)c1OC (stereo not drawn) |  | inactive: -25.9%
14 | CCc1ccccc1NC(=S)N(CCCN(C)C)Cc1cc2cc3c(cc2[nH]c1=O)OCO3 | inconclusive: 14.6 µM [inhibitor, single point] | 
15 | Cc1cccc(OCCCCNCc2ccccc2)c1 | inconclusive: 29.1 µM [inhibitor, single point] | 
16 | CN(C)C(=O)OC1=C(c2ccccc2)Sc2ccccc2-n2cccc21 | inconclusive: 23.1 µM [inhibitor, single point] | 
17 | CCCOc1ccc(CNC(=O)c2oc3ccc4c(c3c2C)C(=O)CC(C)(CC)O4)cc1 (stereo not drawn) | active: 16.4 µM | 
18 | CC(CNC(=O)CCC(=O)N1CCOc2ccc(Cl)cc21)c1ccccc1 (stereo not drawn) | inconclusive: 29.1 µM [inhibitor, single point] | 
19 | CC(C)(C)CC(=O)NC(=S)NCc1ccccc1 |  | inactive: 0.484%
20 | CCOc1ccc(OCC(=O)Nc2cc(Cl)ccc2-n2cncn2)cc1 | inconclusive: 29.1 µM [inhibitor, single point] | 
21 | C#Cc1cccc(C(=O)N2CCCC(Nc3cccc(F)c3)C2)c1 (stereo not drawn) |  | inactive: 3.86%
22 | COc1ccc(CN2CCc3c([nH]c4ccccc34)C2)cc1Br | inconclusive: 23.1 µM [inhibitor, single point] | 
23 | CN1CCOC(c2ccccc2)c2ccccc2C1 (stereo not drawn) | inconclusive: 18.4 µM [inhibitor, single point] | 

Row | SMILES | Potency | activity change, negative = growth inhibition
24 | COc1ccccc1C/C(N)=N/OC(=O)c1ccc2c(c1)OCO2 | inconclusive: 25.9 µM [inhibitor, single point] | 
25 | COc1cc(/C=N/n2nnnc2N)ccc1OCC#N |  | inactive: -9.22%
26 | CCc1cc2c3c(c1)C(C)CC(C)(C)N3C(=O)C2=O (stereo not drawn) | inconclusive: 23.1 µM [inhibitor, single point] | 
27 | CCOC(=O)c1c(NC(=O)CCC(=O)O)sc2c1CCCCC2 | inconclusive: 23.1 µM [inhibitor, single point] | 
28 | Cc1ccc(OCC(=O)N2N=C(c3ccc(Cl)cc3)CC2c2ccco2)c([N+](=O)[O-])n1 (stereo not drawn) | inconclusive: 29.1 µM [inhibitor, single point] | 
29 | COc1ccc(N(CC(O)Cn2c(C)nc3ccccc32)S(=O)(=O)c2ccccc2)cc1 (stereo not drawn) | inconclusive: 11.6 µM [inhibitor, partial curve, poor fit] | 
30 | Cc1ccccc1N1CCN(Cc2ccc([N+](=O)[O-])o2)CC1 | inconclusive: 23.1 µM [inhibitor, partial curve, poor fit] | 
31 | COc1ccc(CNC(=O)Cn2c(=O)c3cccn3c3ccccc32)cc1 |  | inactive: -24.3%
32 | COc1cccc(/C=N\NC(=O)C2C(=O)NCC2c2ccccc2)c1O (stereo not drawn) | active: 23.1 µM | 
33 | CCC(=O)Nc1ccc(-c2nnc(SCc3ccccc3)n2C)cc1 |  | inactive: -5.74%
34 | Cc1ccc(NCCC(=O)c2ccccc2)cc1Cl | active: 14.6 µM | 
35 | O=C(CSc1nnc(CNC(=O)c2ccco2)o1)Nc1cccc(Cl)c1 |  | inactive: 3.02%
36 | Cn1nccc1C(=O)N1CCCC(C(=O)c2ccc(C(F)(F)F)cc2)C1 (stereo not drawn) | inconclusive: 20.6 µM [inhibitor, single point] | 
37 | Cc1cc(NC(=O)CCC(=O)N(CC(=O)NC2CCCC2)Cc2ccc3c(c2)OCO3)no1 | inconclusive: 29.1 µM [inhibitor, single point] | 
38 | Cc1oc(-c2ccc3c(c2)OCCO3)cc1C(=O)O | inconclusive: 8.2 µM [inhibitor, partial curve] | 
39 | COc1cc(SC)ccc1C(=O)N1CCN(c2ccccc2)CC1 | inconclusive: 18.4 µM [inhibitor, single point] | 
40 | Cc1ccc(SC(C)C(=O)Nc2ccncc2)cc1 (stereo not drawn) | inconclusive: 35.5 µM [inhibitor, single point] | 
41 | CN1CCc2c(OCC(=O)N3CCCc4ccccc43)cccc2C1=O | active: 29.1 µM | 
42 | CCc1nnc2c(N3CCN(c4cccc(C(F)(F)F)c4)CC3)nc3ccccc3n12 | active: 20.6 µM | 
43 | O=C(O)C1CCc2sc3[nH]c(=S)n(-c4ccccc4)c(=O)c3c21 (stereo not drawn) |  | inactive: 17.5%
44 | Cc1ccc(NS(=O)(=O)c2cccc(C(=O)N/N=C/c3c(C)nn(-c4ccccc4)c3N3CCCC3)c2)c(C)c1 | inconclusive: 18.4 µM [inhibitor, single point] | 
45 | O=C(NC(=S)NCCc1ccccc1)c1ccco1 | inconclusive: 25.9 µM [inhibitor, single point] | 
46 | COc1ccc2[nH]c(=O)c(C(c3nnnn3C3CCCC3)N(C)C3CCCCC3)cc2c1 (stereo not drawn) | inconclusive: 29.1 µM [inhibitor, single point] | 

Row | SMILES | Potency | activity change, negative = growth inhibition
47 | COc1ccccc1C(CNC(=O)c1ccco1)N1CCCC1 (stereo not drawn) |  | inactive: 3.81%
48 | CCOC(=O)c1c(NC(=O)CN(C)C2CCN(C)CC2)sc(C(=O)Nc2ccccc2)c1C | inconclusive: 16.4 µM [inhibitor, single point] | 
49 | COc1cc(C)ccc1OCc1cc(C(=O)NC2CCOCC2)no1 |  | inactive: -9.33%
50 | COc1cc2c3c(c1OC)-c1cc4c(cc1CC3(C#N)N(C(=O)c1ccccc1)CC2)OCO4 (stereo not drawn) | inconclusive: 29.1 µM [inhibitor, single point] | 
51 | O=C1CC(c2ccccc2)Cc2nc(NCc3ccco3)ncc21 (stereo not drawn) | inconclusive: 29.1 µM [inhibitor, partial curve] | 
52 | O=C1N(Cc2cccc(Cl)c2)C[C@@H]2C[C@@H](c3ccsc3)N3CCC[C@@]123 | inconclusive: 29.1 µM [inhibitor, single point] | 
53 | COc1ccc(N(CC(=O)N2CCc3ccccc3C2)S(=O)(=O)c2ccc(C)cc2)cc1Cl | active: 16.4 µM | 
54 | O=C(Cn1c(=O)n(Cc2ccco2)c(=O)c2oc3ccccc3c21)Nc1ccc(F)c(Cl)c1 | inconclusive: 23.1 µM [inhibitor, single point] | 
55 | COc1cccc(CNc2ncnc3onc(C)c23)c1 | active: 9.2 µM | 
56 | CCOC(=O)[C@]12CCC=C1N(CCC1=CCCCC1)C(=O)[C@H](CC(=O)N1CCCC1)C2 | inconclusive: 29.1 µM [inhibitor, single point] | 
57 | O=C(NCc1ccccc1)NCc1cccs1 |  | inactive: -25.8%
58 | Cc1c(C(=O)OCC(=O)N(C)CC(=O)Nc2ccc(F)cc2)oc2ccccc12 |  | inactive: -21.4%
59 | Brc1ccccc1C1CC(c2ccccc2)=Nc2ccccc2N1 (stereo not drawn) | inconclusive: 29.1 µM [inhibitor, single point] | 
60 | CN1C(=O)C(=O)/C(=C(/O)c2ccc(Br)cc2)C1c1cccc([N+](=O)[O-])c1 (stereo not drawn) |  | inactive: 20.2%
61 | Cc1cccc(C2NC(c3cccc(C)c3)C([N+](=O)[O-])C(C)(C)C2[N+](=O)[O-])c1 (stereo not drawn) | active: 16.4 µM | 
62 | c1ccc(-n2ncc3c(NCc4cccs4)ncnc32)cc1 | inconclusive: 29.1 µM [inhibitor, single point] | 
63 | O=C(N/N=C/c1ccccc1OCC(=O)N1CCCC1)C(=O)Nc1ccccc1F | inconclusive: 20.6 µM [inhibitor, single point] | 
64 | COc1ccc2c(Cl)c(-c3nnc(SCC(=O)c4ccccc4)n3C)sc2c1 | inconclusive: 29.1 µM [inhibitor, single point] | 
65 | CCC(Sc1nc2ccc(N)cc2s1)C(=O)Nc1nccs1 (stereo not drawn) |  | inactive: -28.7%
66 | c1ccc(-c2cc3ncc4c(n3n2)-c2ccccc2OC4)cc1 |  | inactive: -23%
67 | COc1ccccc1N(C)S(=O)(=O)c1ccc(C(=O)NCC(c2ccco2)N2CCCCC2)cc1 (stereo not drawn) | inconclusive: 25.9 µM [inhibitor, single point] | 
68 | COc1ccc(CCNC(=S)c2ccccc2)cc1OC | inconclusive: 16.4 µM [inhibitor, partial curve] | 
